# Source: PubChem BioAssay AID588342 (National Center for Advancing Translational Sciences (NCATS), 2011)
# In all, about 360,000 compounds went through this assay and about 25,000 (6.9%) were called active. Inconclusive results, whose numbers are uncertain, are shown with a selection of clear calls. Calls come from the whole dose curve; as a rule, active = well fitted inhibition curve with a large enough effect; inconclusive = small, poorly fitted or top-dose-only effect; inactive = flat fitted curve, though single readings scatter. A potency beside an inconclusive call is a rough fit, not a confirmed value.
# Target: Luciferin 4-monooxygenase (Photinus pyralis) (UniProt P08659)
# Test: qHTS profiling assay for firefly luciferase inhibitor/activator using purifed enzyme and Km concentrations of substrates (counterscreen for miR-21 project); note: nearly all actives have a fitted effect of over 55% in size
# Conditions: purified FLuc, luminescence inhibition; series mostly up to 57.5 µM
# Summary of the method: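 Purified P. pyralis luciferase, 10 nM final, with Km-level 10 uM D-luciferin and 10 uM ATP in 50 mM Tris acetate pH 7.5, 10 mM Mg acetate, 0.01% Tween-20, 0.05% BSA; 6-point qHTS titration about 60 µM downward; luminescence read.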
# Potency is the fitted concentration of half-maximal effect; tags give direction and shape of the fitted curve.
# UniProt P08659, sequence (P08659 whole entry, looked up): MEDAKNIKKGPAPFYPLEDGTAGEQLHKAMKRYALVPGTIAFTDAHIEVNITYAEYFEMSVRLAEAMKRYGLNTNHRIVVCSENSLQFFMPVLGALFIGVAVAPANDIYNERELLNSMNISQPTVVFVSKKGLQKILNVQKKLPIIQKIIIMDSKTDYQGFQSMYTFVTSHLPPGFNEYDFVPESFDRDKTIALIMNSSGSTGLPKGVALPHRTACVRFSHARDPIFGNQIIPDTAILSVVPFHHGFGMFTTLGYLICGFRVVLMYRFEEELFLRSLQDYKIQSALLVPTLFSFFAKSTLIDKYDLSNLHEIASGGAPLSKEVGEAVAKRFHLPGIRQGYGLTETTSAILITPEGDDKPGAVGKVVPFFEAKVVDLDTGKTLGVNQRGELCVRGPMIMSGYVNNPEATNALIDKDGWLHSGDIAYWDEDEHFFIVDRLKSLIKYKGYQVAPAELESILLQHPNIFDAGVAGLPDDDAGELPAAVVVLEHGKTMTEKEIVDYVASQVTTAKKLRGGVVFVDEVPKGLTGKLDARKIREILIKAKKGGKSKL
row,Compound,Potency
1,O=C(O)c1cccc(S(=O)(=O)N(Cc2ccccc2)c2ccccc2)c1,"inconclusive: 23.9 µM [inhibitor, single point]"
2,S=C(Nc1ccccc1)N1CCc2ccccc21,"inconclusive: 37.9 µM [inhibitor, partial curve, poor fit]"
3,CC1Cc2cc(/C=C3/SC(=S)N(C)C3=O)ccc2O1 (stereo not given),active: 1.07 µM
4,CC(=O)Nc1ccccc1OCC(=O)c1cc(C)n(Cc2cccs2)c1C,"inconclusive: 26.9 µM [inhibitor, single point]"
5,CCOC(=O)CSc1nnc(NC(=O)c2ccco2)s1,inactive
6,CN(C)/C=N/C(=S)Nc1ccc(Cl)c(Cl)c1,active: 16.9 µM
7,CSc1ccccc1OCc1cc(C(=O)NC(C)CCn2cccn2)no1 (stereo not given),"inconclusive: 16.9 µM [inhibitor, partial curve, poor fit]"
8,Cc1cccc(NC(=S)NNC(=O)c2csc3c2CCC(C)C3)c1 (stereo not given),active: 12 µM
9,CCOc1ccc(NC(=O)CN2CCN(CC(=O)Nc3ccc(N(C)C)cc3)CC2)cc1,"inconclusive: 16.9 µM [inhibitor, partial curve]"
10,COc1ccccc1N1CCN(Cc2cc(=O)c(OCC#N)co2)CC1,inactive
11,N#CCCn1nnc2ccccc21,inactive
12,COc1ccc(NC(=S)N(CCCN2CCCCC2)Cc2cccs2)cc1,inactive
13,CCCCOc1ccc(C(=O)NCCS(=O)(=O)N2CCN(c3ccccc3OC)CC2)cc1,inactive
14,C/C(=C\C(=O)c1ccc(Cl)cc1)NCc1ccc2c(c1)OCO2,inactive
15,CCOC(=O)N1CCC(NC(=O)CN(c2ccc(C(C)C)cc2)S(=O)(=O)c2c(C)nn(C)c2C)CC1,inactive
16,COc1cc(Cl)c(C)cc1NC(=O)c1ccccc1NC(=O)CN1CCOCC1,inactive
17,O=C1N=C(N2CCOCC2)S/C1=C\c1ccncc1,inactive
18,Cc1[nH]n(-c2ccccc2)c(=S)c1C=Nc1ccc([N+](=O)[O-])cc1,"inconclusive: 37.9 µM [inhibitor, single point]"
19,Cc1ccc(-c2onc(C)c2C)cc1S(=O)(=O)Nc1ccc(Cl)cn1,"inconclusive: 15.1 µM [inhibitor, partial curve]"
20,COc1ccc(CNC(=O)c2cc3cccc4c3n2CC(C)S4)c(OC)c1 (stereo not given),inactive
21,Cc1cc(C(=O)N/N=C/c2cc([N+](=O)[O-])ccc2O)c2ccccc2n1,"inconclusive: 23.9 µM [inhibitor, partial curve, poor fit]"
22,O=C(Nc1ccc(Cc2ccncc2)cc1)c1cccc([N+](=O)[O-])c1,"inconclusive: 12 µM [inhibitor, partial curve, poor fit]"
23,Cc1ccc(Cl)cc1NC(=O)CSc1nc2c(c(=O)[nH]1)CN(Cc1ccccc1)CC2,inactive
24,CC(C)(C)C1CCC(C(=O)Nc2nccs2)CC1 (stereo not given),"inconclusive: 7.57 µM [inhibitor, partial curve, poor fit]"
25,Cc1cccc(C(=O)OCC(=O)NC(=O)c2ccccc2)c1O,inactive

row,Compound,Potency
1,CCCNC(=S)N1CCN(c2nc(-c3cccc(OC)c3)cs2)CC1,"inconclusive: 37.9 µM [inhibitor, partial curve, poor fit]"
2,CCOC(=O)C1CCCN(c2ccc(NC(=O)c3snc4c(=O)[nH]c(C)nc34)cc2)C1 (stereo not given),"inconclusive: 6.01 µM [inhibitor, partial curve, poor fit]"
3,Cc1ccc(-c2cc3nc(C)cc(C)n3n2)cc1,active: 2.69 µM
4,Cc1cc(NCCN2CCOCC2)n2ncc(-c3ccccc3)c2n1,active: 7.57 µM
5,Cc1nn(-c2ccc(N3CCOCC3)nn2)c(C)c1CCC(=O)NCc1ccccc1F,inactive
6,O=C(CSc1nnnn1-c1cccc2ccccc12)N1CCOCC1,inactive
7,COc1ccccc1NC(=O)CCc1nc(-c2ccccc2F)no1,"inconclusive: 37.9 µM [inhibitor, partial curve, poor fit]"
8,C/C(=N/NC(=O)c1ccccn1)c1c[nH]c2ccccc12,active: 5.36 µM
9,Cc1cc(C)c(NC(=O)COC(=O)COc2ccc3c(C)cc(=O)oc3c2)c(Cl)c1,inactive
10,N#CCn1nnc(-c2ccc3c(c2)OCO3)n1,"inconclusive: 21.3 µM [inhibitor, single point]"
11,O=C(Nc1ccc(Cl)c(-c2nc3ccccc3[nH]2)c1)c1ccc2c(c1)OCO2,active: 12 µM
12,CN(C)c1cc2c(c(N(C)C)c1)C(=O)c1ccccc1C2=O,"inconclusive: 26.9 µM [inhibitor, single point]"
13,CCOc1ccc(CNC(=O)c2sc3ncnc(N(C)C4CCCCC4)c3c2C)cc1,inactive
14,CCOc1ccc(CCNC(=O)c2cccc(NC3=NC4CS(=O)(=O)CC4S3)c2)cc1 (stereo not given),"inconclusive: 19 µM [inhibitor, partial curve]"
15,CCOc1ccccc1Nc1nnc(SCC(=O)Nc2ccc3[nH]c(=O)[nH]c3c2)s1,inactive
16,COC(=O)c1cccc(Nc2nn3c(=O)c4cc5c(cc4nc3s2)OCO5)c1,"inconclusive: 16.9 µM [inhibitor, partial curve]"
17,COc1ccc(OCC(=O)Nc2ccc(S(=O)(=O)Nc3cc(C)nc(C)n3)cc2)cc1,inactive
18,CCCCC1(C)OC(=O)C(=Cc2ccc(SC)cc2)C(=O)O1 (stereo not given),"inconclusive: 37.9 µM [inhibitor, single point]"
19,Cc1cc2ccccn2c1C(=S)NC(=O)c1ccccc1,"inconclusive: 26.9 µM [inhibitor, partial curve, poor fit]"
20,Oc1ccccc1N=Nc1ccccc1O,"inconclusive: 12 µM [inhibitor, partial curve]"
21,Cc1cc(NC(=O)c2ccco2)ncc1NC(=O)Cc1ccccc1,active: 16.9 µM
22,COc1ccc(CNC(=O)CSc2ncc(S(=O)(=O)c3ccc(Br)cc3)c(=O)[nH]2)cc1,"inconclusive: 6.75 µM [inhibitor, partial curve]"
23,COC(=O)Nc1nc2ccc(Sc3ccccc3)cc2[nH]1,"inconclusive: 2.69 µM [inhibitor, full curve]"
24,Cc1cc(NC(=O)CSCC(=O)Nc2cccc(S(=O)(=O)N3CCCCCC3)c2)no1,inactive
25,CCOc1ccc2nc(SCC(=O)N(CC(C)C)c3c(N)n(Cc4ccccc4)c(=O)[nH]c3=O)[nH]c2c1,"inconclusive: 26.9 µM [inhibitor, partial curve, poor fit]"

row,Compound,Potency
1,CN(C(=O)c1cccc(N2C(=O)C3CC=CCC3C2=O)c1)C1CCCCC1 (stereo not given),"inconclusive: 21.3 µM [inhibitor, partial curve, poor fit]"
2,O=[N+]([O-])c1cccc(N/N=C/c2ccc(N3CCOCC3)cc2)c1,active: 10.7 µM
3,COc1cccc(CNc2ncc(Br)cc2Br)c1O,active: 26.9 µM
4,COc1ccc(C(=O)c2coc3ccc(OC(C)=O)cc23)cc1,active: 9.53 µM
5,CCc1cc(=O)[nH]c(SCc2ccc(C)cc2)n1,"inconclusive: 19 µM [inhibitor, partial curve, poor fit]"
6,CN(C)c1ccc(/C=N/NC(=O)c2cccc(N3CCCC3=O)c2)cc1,active: 10.7 µM
7,CCOC(=O)N1CCN(C(=O)COC(=O)c2cccc(C)c2[N+](=O)[O-])CC1,"inconclusive: 37.9 µM [inhibitor, partial curve, poor fit]"
8,CCOC(=O)C1CCCN(S(=O)(=O)c2ccc3[nH]c(=O)oc3c2)C1 (stereo not given),"inconclusive: 16.9 µM [inhibitor, partial curve, poor fit]"
9,COCCCNC(=O)CCCN1C(=O)c2cccnc2Sc2ccccc21,inactive
10,CCOC(=O)Cc1cc(=O)n2[nH]cc(-c3cccc(Br)c3)c2n1,"inconclusive: 37.9 µM [inhibitor, partial curve, poor fit]"
11,COCc1cc(C)nc2sc3c(c12)NC(c1ccc(O)cc1)N(c1ccc(C)cc1)C3=O (stereo not given),"inconclusive: 13.5 µM [inhibitor, partial curve, poor fit]"
12,CC(=O)Nc1nc(-c2cccc3ccccc23)cs1,"inconclusive: 21.3 µM [inhibitor, partial curve, poor fit]"
13,CC(C)c1onc(C(=O)NCCc2ccccc2)c1[N+](=O)[O-],"inconclusive: 30.1 µM [inhibitor, partial curve, poor fit]"
14,c1ccc2nc3c(nc2c1)c1ccccc1n3CCN1CCOCC1,"inconclusive: 26.9 µM [inhibitor, partial curve, poor fit]"
15,O=C(CSc1nc2ccc([N+](=O)[O-])cc2s1)c1ccc2ccccc2c1,inactive
16,O=[N+]([O-])c1cc(/C=N\Nc2nc(-c3ccccc3)cs2)ccc1O,"inconclusive: 8.49 µM [inhibitor, partial curve]"
17,COC(=O)COc1ccc(S(=O)(=O)Nc2ccc3c(c2)OCCO3)cc1C,"inconclusive: 26.9 µM [inhibitor, partial curve, poor fit]"
18,Cc1ccccc1C(=O)Nc1nnc(SCC(=O)NCc2ccco2)s1,active: 1.69 µM
19,COc1ccc(CNC(=O)CN(Cc2ccccc2Cl)C(=O)c2csnn2)cc1,inactive
20,COc1ccc(-n2ncc3c(N4CCCCC4)ncnc32)cc1,active: 0.169 µM
21,COc1ccc(NCC(=O)N/N=C2\CCc3ccccc32)cc1,"inconclusive: 23.9 µM [inhibitor, single point]"
22,COc1ccc(N2C(=O)CCC2=O)c(OC)c1,inactive
23,CS(=O)(=O)c1ccc2c(c1)SC1=NC(=O)/C(=C/c3ccco3)C(=N)N12,active: 10.7 µM
24,CN1CCN(c2nc3ccccc3nc2C(C#N)C(=O)OC2CCCCC2)CC1 (stereo not given),inactive
25,O=C(Nc1ccc(CN2CCOCC2)cc1)c1ccc(-c2ccc(Br)cc2)o1,"inconclusive: 26.9 µM [inhibitor, single point]"
